In PubChem BioAssay AID1508642 (National Center for Advancing Translational Sciences (NCATS), 2021):
Screen size: about 43,000 compounds; about 200 (0.47%) were called active. Another 12% or so got no clear call; they are omitted. The call rests on the fitted dose curve; in most records, active means well fitted cell-killing curve with a large enough effect; inconclusive means small, poorly fitted or top-dose-only effect, or effect the other way; inactive means flat fitted curve, though single readings scatter. The list shows a part of the results.

Assay: Cell viability qHTS assay in S16 Pmp22-F2sN cells; further: nearly all actives have a fitted effect of over 65% in size
Settings: S16 Pmp22-F2sN Schwann cells (luciferase reporters placed in the Pmp22 gene) viability, CellTiter-Glo, 24 h; series mostly up to 57.5 µM; activity change, negative = cytotoxicity: at the top concentration
In short: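 S16 Schwann cells carrying the Pmp22-F2sN reporter, seeded in 1536-well format, were exposed to library compounds for 24 h at 37C. Viability was read as CellTiter-Glo luminescence after 15 min at room temperature.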
On the % scale 0 is the no-effect control and ±100 the full control effect.

SMILES | activity change, negative = cytotoxicity
Cc1ccc(NC(=O)Cn2nnc3sc4c(c3c2=O)CCCC4)c(C)c1 | inactive: -10.7%
O=C(/C=C/c1ccc(Cl)cc1)Nc1nc(-c2cccs2)ns1 | inactive: 3.01%
CCCCc1ccc(NC(=O)CSc2nnc3[nH]c(=O)cc(C)n23)cc1 | inactive: 4.79%
CCCN1CCN(CCCNC(=O)c2ccc(CS(=O)c3ccc(OC)cc3)o2)CC1 (configuration not stated) | inactive: 4.2%
CCCN(CCC)C(=O)CSc1nnc2cc(C)c3ccccc3n12 | inactive: 3.46%
CCN(CC)CCNC(=O)c1cc2c(=O)oc3ccc(C)cc3c2s1 | inactive: 21.6%
COc1cc(OC)c(NC(=O)CCNS(=O)(=O)c2ccc3c(c2)oc(=O)n3C)cc1Cl | inactive: 7.68%
CC(=O)N1CCCc2cc(S(=O)(=O)N(Cc3ccccc3)C(C)C)ccc21 | inactive: -18.2%
COc1cccc(C(C(=O)NCc2ccccc2)N(C(=O)Cn2nnc3ccccc32)c2cccc(C(C)=O)c2)c1 (configuration not stated) | inactive: -4.24%
Cc1ccc(C)c(CSc2cn(CCNC(=O)c3ccccc3F)c3ccccc23)c1 | inactive: -3.21%
Cc1cccc(Oc2ccc(NC(=O)CCC(=O)OCC(=O)c3ccc(Br)cc3)cc2)c1C | inactive: 3.8%
COc1cc(C2c3c(-c4ccccc4O)n[nH]c3C(=O)N2CCO)ccc1OCC(C)C (configuration not stated) | inactive: -0.277%
COc1ccc(Cc2c(C)nn(-c3nc(C)c(C(=O)Nc4ccc(C)cc4C)s3)c2C)cc1 | inactive: 1.86%
Clc1ccccc1-c1nnc(-c2ccccc2CNc2ccccc2)o1 | inactive: -0.67%
COc1ccc(NC(=O)C2CCC(CNS(=O)(=O)c3cccs3)CC2)cc1OC (configuration not stated) | inactive: 6.23%
Cc1ccc(C)c(N2CCN(S(=O)(=O)c3csc(C(N)=O)c3)CC2)c1 | inactive: -14.5%
CCn1nnc2cc(C(=O)Nc3cccc(C)c3C)ccc21 | inactive: -17.5%
Cc1ccccc1CSCCNC(=O)CN(c1ccccc1)S(=O)(=O)N(C)C | inactive: -3.47%
CCN1CCc2c(sc(-n3cccc3)c2C(C)NC(=O)Nc2ccccc2C)C1 (configuration not stated) | inactive: -11.4%
Cc1cccc(CC(=O)Nc2cccc(-c3nc4cccnc4s3)c2)c1 | inactive: 0.554%
Cc1cccc(C)c1NC(=O)CN1C(=O)c2ccccc2Sc2ncccc21 | inactive: 0.923%
COc1ccc(C)cc1NC(=O)CN1CCN(S(=O)(=O)c2ccc(Br)cc2)CC1 | inactive: 7.34%
COC(=O)c1cc2sc(C)cc2n1CC(=O)Nc1ccc(C)cc1Cl | inactive: 0.573%
COc1ccc(-c2noc(CSc3nnc(-c4ccccc4)n3C)n2)cc1 | inactive: -0.167%
CCCOC(=O)c1ccc(Nc2c(C(=O)OCC)cnc3c(C)cc(Cl)cc23)cc1 | inactive: 13.4%

SMILES | activity change, negative = cytotoxicity
CC(C)OCCCNC(=O)c1nn(C)c2c1CSc1ccccc1-2 | inactive: 1.8%
Cc1ccc(CCNC(=O)c2cc3c(=O)n(C)c4ccccc4c3n2C)cc1 | inactive: 1.48%
Cc1cccc(N2CCN(c3nc4ccccc4c4nc(-c5cccnc5)nn34)CC2)c1C | inactive: 12.4%
CC(C)CCn1c(=O)c2sccc2n2c(CCCC(=O)NC(C)c3ccccc3)nnc12 (configuration not stated) | inactive: 11.4%
CC(=O)c1cccc(NC(=O)CSc2nc3c(=O)n(C)c(=O)n(C)c3n2C)c1 | inactive: 5.77%
Cc1cccc(OCC(=O)Nc2ccccc2C(=O)OCc2cc(=O)n3nc(C4CC4)sc3n2)c1 | inactive: 10%
CCOC(=O)c1ccc(NC(=O)c2c(NCc3cc(OC)ccc3OC)sc3c2CCC3)cc1 | inactive: 6.16%
CCc1cnc2c(c1SCCC(C)C)c(=O)n(C)c(=O)n2C | inactive: 2.91%
CCn1cc(C(=O)Nc2ccc(C(C)C)cc2)c2cc(OC)c(OC)cc2c1=O | inactive: -7.85%
CCc1cccc(N2C(=O)N(Cc3c(F)cccc3Cl)c3ccccc3S2(=O)=O)c1 | inactive: 18.1%
Cc1ccc2cc3cc(C(=O)N(C)c4ccccc4C)oc3nc2c1 | inactive: 3.5%
CCCCNC(=O)c1ccc2c(c1)NC(=O)C(CS(=O)(=O)Cc1ccc(F)cc1Cl)N2 (configuration not stated) | inactive: 2.15%
CC(=O)Nc1ccc(S(=O)(=O)N(Cc2ccccc2)Cc2ccccc2)cc1 | inactive: -10.1%
CCOc1ccccc1-c1nc(C(N)=O)c2c(n1)n(-c1ccc3c(c1)OCO3)c(=O)n2C | inactive: 4.41%
C=Cc1ccc(Cn2c(=O)n(CC3CCC(C(=O)NC(C)C)CC3)c(=O)c3sccc32)cc1 (configuration not stated) | inactive: -0.549%
O=C(NCc1ccco1)c1ccc2c(c1)N(Cc1ccccc1F)C(=O)c1ccccc1S2(=O)=O | inactive: -24.6%
CCn1c(=O)cc(SCC(=O)NCc2ccc(C)cc2)c2ccccc21 | inactive: 1.97%
Nc1ccc2oc(Cc3ccc(Cl)cc3)nc2c1 | inactive: -1.5%
COc1ccc(C)cc1NC(=O)Cc1c(C(=O)O)c(C)cn1C | inactive: 7.73%
COCCNc1ccc(-c2nc(-c3ccccn3)no2)cc1[N+](=O)[O-] | inactive: 18.3%
CCCC(=O)Nc1ccc2nc(SCc3ccc(C)cc3)sc2c1 | inactive: 5.92%
O=C(NCc1ccc(Cl)cc1)c1ccc2c(c1)N(Cc1ccccc1F)C(=O)c1ccccc1S2=O (configuration not stated) | inactive: 19.8%
CCc1ccc(CNC(=O)c2ccc(CS(=O)(=O)Cc3cccc(C)c3)o2)cc1 | inactive: -6.98%
CCCCNc1nc2c(c(=O)n(Cc3ccccc3)c(=O)n2C)n1C | inactive: -0.552%
Cc1ccc(Cl)cc1N1CCN(C(=O)C2CCCN(Cc3nc(-c4cccc(Cl)c4)oc3C)C2)CC1 (configuration not stated) | inactive: 3.09%

SMILES | activity change, negative = cytotoxicity
COc1ccc(N(C)C(=O)c2cc3c(s2)-c2ccccc2OC3)cc1 | inactive: -0.8%
O=C(c1ccc(Cl)cc1)c1cn(Cc2ccccc2)c2cc3c(cc2c1=O)OCCO3 | inactive: -25.9%
Cc1ccc(NC(=O)Cn2c(=O)ccc3cc(S(=O)(=O)N4CCCC4)ccc32)cc1N(C)C | inactive: -9.8%
Cc1cc(C(=O)Nc2cccc(C)c2C)c2c(C)nn(-c3cccc(F)c3)c2n1 | inactive: -3.24%
COc1ccc2c(c1)c1c(c(=O)n(-c3ccc(F)c(Cl)c3)c(=O)n1Cc1cccc(C)c1)n2C | inactive: -1.84%
Cc1ccc2c(c1)C(=O)OC(C(=O)Nc1ncc(Cc3ccccc3Cl)s1)C2 (configuration not stated) | inactive: 15.7%
Cc1ccc(-c2cc(-c3ccc4c(c3)NC(=O)CO4)nc3c2COc2ccccc2-3)cc1 | inactive: 8.25%
COc1ccc(CNC(=O)Cn2nc3c(cc2=O)CCCC3)cc1 | inactive: 13.8%
Cc1cc(C)c2c(CC(=O)Nc3ccc(F)cc3)coc2c1 | inactive: -14.8%
Cc1ccc(-n2nc(C)c3nc(CCC(=O)Nc4cccc(C)c4C)c(=O)n(C)c32)cc1 | inactive: -2.4%
CC(=O)Nc1cc(C(=O)NCc2ccccc2Cl)ccc1Sc1ccc(F)cc1 | inactive: -0.0809%
Cc1ccc(NC(=O)c2cc(S(=O)(=O)N3CCCCC3)c[nH]2)cc1N(C)C | inactive: -1.77%
Cc1cc(C)cc(NC(=O)c2cc(S(=O)(=O)NCCC3=CCCCC3)ccc2F)c1 | inactive: -15.8%
Cc1nnc(NC(=O)CSc2nc3c([nH]c4ccccc43)c(=O)n2-c2ccc(Cl)cc2)s1 | inactive: 3.55%
Cc1ccc2[nH]c(=O)c3cc(C(=O)N(C)c4ccc(Br)cc4)sc3c2c1 | inactive: 16%
CCc1ccc(NC(=O)C2CCN(c3nc(-c4ccc(OC)cc4)no3)CC2)cc1 | inactive: 0.734%
COc1ccc2c(c1)CC(C(=O)NCc1ccc(F)cc1)CO2 (configuration not stated) | inactive: -4.12%
Cc1cc(OCC(=O)Nc2ccc(C(=O)OC3CCCCC3)cc2)cc(C)c1Cl | inactive: 7.21%
COc1ccc(CCNCc2c(C(=O)O)c(C)n(Cc3c(F)cccc3Cl)c2C)cc1OC | inactive: 2.62%
Cc1cccc(C(=O)Nc2ccc3oc(-c4cccc5c(Br)cccc45)nc3c2)c1 | inactive: 9.33%
O=c1c2cccnc2n(Cc2ccccc2F)c(=O)n1Cc1ccc(F)cc1 | inactive: 9.69%
CCCCN1C(=O)c2[nH]nc(-c3ccccc3O)c2C1c1cc(Br)c(O)c(OC)c1 (configuration not stated) | inactive: -15.7%
COc1cccc(CNC(=O)C(NS(=O)(=O)c2cccs2)C(C)C)c1 (configuration not stated) | inactive: 3.1%
COc1cccc(CNC(=O)c2ccc3nc(N4CCCCC4)sc3c2)c1OC | inactive: 3.49%
Cc1ccc(CN2CCSc3ccc(C(=O)N4CCN(c5ccc(Cl)cc5)CC4)cc32)cc1 | inactive: -25.7%

SMILES | activity change, negative = cytotoxicity
COc1ccccc1NC(=O)c1cc(S(=O)(=O)NCCc2ccccc2)ccc1F | inactive: -8.48%
O=S(=O)(Nc1ccc2nc(-c3ccc(F)cc3)oc2c1)c1ccccc1 | inactive: -0.619%
CCOCCCNC(=O)C(c1ccc(OC)cc1)N(Cc1ccc2c(c1)OCO2)C(=O)c1ccc(NC(C)=O)cc1 (configuration not stated) | inactive: -16.3%
CCCCc1nn2c(=O)cc(COC(=O)c3ccc(NC(=O)c4ccccc4Cl)cc3)nc2s1 | inactive: 19.5%
COc1ccc(NC(=O)Cn2c3ncccc3c(=O)n2-c2ccc(C)c(C)c2)c(OC)c1 | inactive: -5.58%
O=C(NC1(C(F)(F)F)C(=O)Nc2c1c(=O)[nH]c(=O)n2-c1ccc(F)cc1)c1ccccc1 (configuration not stated) | inactive: 4.46%
COc1ccc(C2C(=O)N(C3CCCCC3)CC(=O)N2CCC2=CCCCC2)cc1 (configuration not stated) | inactive: -10.8%
CCOc1ccc(-n2c(=O)c3sc4ccccc4c3n(Cc3cccc(C)c3)c2=O)cc1 | inactive: -1.97%
Cc1ccc(OC(=O)c2cc(-c3ccc(Cl)cc3)on2)c(C)c1 | inactive: -0.641%
Cc1cccc(N2CCN(C(=O)CCc3c(C)nc4c(c3C)c(=O)n(C)c(=O)n4C)CC2)c1C | inactive: 13.8%
COc1ccc(-n2cc(C(=O)OCc3ccc(F)c(F)c3)c3ccccc3c2=O)cc1 | inactive: 3.29%
CCc1ccc(NS(=O)(=O)c2ccc3[nH]cc(C(=O)NCCc4cccc(C)c4)c(=O)c3c2)cc1 | inactive: -0.894%
O=C(NCc1ccccc1)C(=O)NCC(c1ccc2c(c1)OCO2)N1CCOCC1 (configuration not stated) | inactive: 25.4%
CCN1CCN(c2oc(/C=C/c3ccc(OC)c(OC)c3)nc2C#N)CC1 | inactive: -0.466%
COc1ccc2c(c1)sc1ncc(C(=O)NCc3ccc(Cl)cc3)c(=O)n12 | inactive: -1.16%
Clc1ccc(-c2cn3ncsc3n2)cc1 | inactive: 0.0804%
CCOc1ccc(CCNC(=O)Cn2ncn3c(cc4sc(C)cc43)c2=O)cc1OCC | inactive: 1.65%
O=C(NCCS(=O)(=O)N1CCN(c2ccccc2F)CC1)C(c1ccccc1)c1ccccc1 | inactive: 6.23%
O=C(Nc1ccccc1Cl)c1cc(S(=O)(=O)N2CCC3(CC2)OCCO3)ccc1F | inactive: -17.7%
Cc1ccc(NC(=O)CCNS(=O)(=O)c2ccc(Br)s2)cc1 | inactive: -0.572%
CCOC(=O)C1CCCN(C(=O)c2cccc(NC(=O)c3nsc4ccccc34)c2)C1 (configuration not stated) | inactive: -12.4%
Cc1ccc(-c2nc(NC(=O)CSc3ncnc4sc5c(c34)CCC(C)C5)ns2)cc1 (configuration not stated) | inactive: 12.9%
